These results are taken from ChEMBL document CHEMBL4888484, “Replenishing the malaria drug discovery pipeline: Screening and hit evaluation of the MMV Hit Generation Library 1 (HGL1) against asexual blood stage Plasmodium falciparum ,using a nano luciferase reporter read-out” (2022).

The campaign covered roughly 150,000 compounds. About 540 (0.36%) showed an effect of 50% or more. The list shows a part of the results.

The assay concerns Plasmodium falciparum. Kind of assay: Primary screen in NF54 nanoGlo assay, in single point, at 2uM, 72h; a lower Z score goes with more inhibition. Format: functional, Erythrocyte. As to conditions: timepoint 72 hour.
What is called % Inhibition is the drop in the measured response relative to a control, in per cent. Consider `O=C(NCc1sncc1Br)NCC1CCOCC1`, for which the “% Inhibition” value is -9% and the Z score is recorded as 1.35.
As to `COc1ccc(C(=O)N2CCC(n3c(C)cnc3-c3ccncc3)CC2)cn1`, the “% Inhibition” value is -17% and the Z score came out at 2.26.
For the compound `CC1=CCN(CCNS(=O)(=O)c2cnc3n2CCCC3)CC1`, the “% Inhibition” value is -4% and the Z score is given as 0.69.
In the case of `CCc1ccccc1[C@@H]1C[C@H]1C(=O)N1CCCC1CN1CCCC1` (stereo partly drawn), the “% Inhibition” value was -6% and the Z score turned out to be 0.67.
For `COC(=O)c1cc(OCC(=O)Nc2ccc(OC)cc2)c2cc(C)ccc2n1`, the “% Inhibition” value is -9% and the Z score was found to be 1.45.
As to `CNc1ncccc1C(=O)N(Cc1ccncc1)C[C@@H]1CCC(=O)N1`, the “% Inhibition” value was -3% and the Z score was found to be 0.59.
With `COc1cccc2ncnc(N3CCO[C@H](c4nnc(C(C)C)o4)C3)c12`, the “% Inhibition” value is on record as -19% and the Z score came out at 3.72.
The like results for `O=S(=O)(C[C@H]1CCCCO1)Nc1ccc(-c2nnc3n2CCCC3)cc1` were, in that order, 4% and -0.42.
In the case of `CC(C)c1ccc2c(c1)N=C(c1ccncc1)N=C(c1cccs1)N2`, the “% Inhibition” value is given as -10% and the Z score is listed as 1.18.
The like results for `Cn1nc(-c2ccccc2)c2[nH]c(-c3ccoc3)nc21` were, in that order, -8% and 1.18.
Taken in the same sequence, the figures for `COc1ccccc1N1CCN(C(=O)Cn2nc(N3CCOCC3)ccc2=O)CC1` were -12% and 1.32.
Consider `Cc1cccc(S(=O)(=O)Nc2cnc(C3CC3)nc2)c1Cl`, for which the “% Inhibition” value came to 11% and the Z score is -1.4.
On to `COc1ccccc1OCC(=O)Nc1ccccc1Cc1nc(C)no1`, for which the “% Inhibition” value worked out at 4% and the Z score was -0.68.
`O=C(c1nc2ccccc2[nH]c1=O)N1C[C@H]2CC[C@@H](C1)N(CC1CC1)C2`: the “% Inhibition” value is recorded as -8% and the Z score is listed as 0.82.
In the case of `Cc1cc(NC(=O)C(=O)N2CCCC[C@@H]2CCO)no1`, the “% Inhibition” value is on record as -11% and the Z score is recorded as 1.36.
Taken in the same sequence, the figures for `C[C@@H](C(=O)NCc1noc(CCc2ccccc2)n1)c1ccccc1` were 10% and -1.21.
The like results for `CCC(CC)NC(=O)COc1ccccc1OC` were, in that order, -12% and 1.54.
In the case of `CC(C)CCOc1ccc(CCNC(=O)c2ncc[nH]2)cc1`, the “% Inhibition” value was -9% and the Z score is given as 1.
The like results for `CCN(C[C@H]1CCOC1)C(=O)NCCn1ccnc1` were, in that order, 2% and -0.27.
As to `O=C(c1cc2ccccc2s1)N1CCC(n2c(=O)[nH]c3ccc(F)cc3c2=O)CC1`, the “% Inhibition” value is recorded as -15% and the Z score is recorded as 1.93.
On to `CCCOc1ccc(C(=O)Nc2nc(-c3ccc(C)cc3)c(NC(=O)c3ccco3)s2)cc1`, for which the “% Inhibition” value is -5% and the Z score turned out to be 0.62.
Regarding `Cc1cnc(CNC(=O)c2cnc(C3CC3)nc2C)cn1`, the “% Inhibition” value is 3% and the Z score is recorded as -0.53.
Turning to `O=C1c2cc3ccccc3c(-c3ccccc3)c2C(=O)N1c1ccccc1`, the “% Inhibition” value is listed as 38% and the Z score is reported as -4.87.
Regarding `COC(=O)C1CCCCCC1NC(=O)c1cc[nH]n1` (stereo not drawn), the “% Inhibition” value is 32% and the Z score is -3.57.
